Measured values published in PubChem BioAssay AID504706 (National Center for Advancing Translational Sciences (NCATS), 2011).
The whole screen tested about 320,000 compounds, of which about 200 (0.062%) were called active. The inconclusive results got no clear call from the source; some entries with a clear call stand among them for comparison. Calls follow the shape of the dose curve; as a rule, active = well fitted activation curve with a large enough effect; inconclusive = small, poorly fitted or top-dose-only effect; inactive = no such curve, though single readings can be large or run the other way. Potencies of inconclusive entries are left out as doubtful fits.

Assay: qHTS assay for re-activators of p53 using a Luc reporter; also: nearly all actives have a fitted effect of over 45% in size; as to activity change, positive = activation: % of control where 0% means no effect
Conditions: H1299 p53-A138V BP100-luciferase reporter, luminescence, 24 h; series mostly up to 92.2 µM; activity change, positive = activation: at the top concentration
How it was run: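 p53-null H1299 cells stably carrying temperature-sensitive p53-A138V and a BP100-luciferase reporter were pinned with compounds (4-point, 1:5 series) and held 24 hrs at 37 deg C. Luminescence was read 10 min after detection reagent.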
Potency is read from the fitted curve at half-maximal effect; tags tell the direction and shape of the fitted curve.

Row | Compound | activity change, positive = activation | Potency
1 | CCCCCCOc1ccc(N2C(=O)CC(SCCN)C2=O)cc1 (stereo unspecified) | inactive: -9.02% | –
2 | COc1ccc2[nH]c(C(=O)N/N=C/c3ccc(OC)c(O)c3)cc2c1 | – | inconclusive [activator, single point]
3 | CCSc1nnc(NC(=O)c2cccnc2Cl)s1 | – | inconclusive [activator, partial curve, poor fit]
4 | COc1ccc(-n2nc([N+](=O)[O-])c(=NCc3ccc4c(c3)OCO4)n2O)cc1 | – | inconclusive [activator, full curve, poor fit]
5 | Cc1ccc(O)c(N=NC2=C(O)CC(C)(C)CC2=O)c1 | – | inconclusive [activator, partial curve, poor fit]
6 | COc1cc(C(=S)N2CCOCC2)ccc1OC(=O)c1ccc([N+](=O)[O-])cc1[N+](=O)[O-] | inactive: -2.13% | –
7 | Fc1ccc(/C=N/N2CCN(Cc3ccccc3)CC2)cc1 | – | inconclusive [activator, partial curve, poor fit]
8 | O=C(C1CC(c2ccccc2O)=NO1)N1CCCCC1 (stereo unspecified) | – | inconclusive [activator, single point]
9 | Nc1nn2c(C(F)(F)F)cc(=O)[nH]c2c1N=Nc1cccc(F)c1 | – | inconclusive [activator, single point]
10 | Cc1ccc(-n2c(C)cc(C(=O)CN3CCCCC3)c2C)cc1 | – | inconclusive [activator, partial curve, poor fit]
11 | CCC(CC)c1nnc(NC(=O)C2COc3ccccc3O2)s1 (stereo unspecified) | – | inconclusive [activator, partial curve, poor fit]
12 | COc1cccc(C(=O)NCc2ccc(-c3nc4ccccc4s3)cc2)c1 | – | inconclusive [activator, partial curve, poor fit]
13 | Cc1cc(N(C)C)nc(Nc2ccccc2)n1 | – | inconclusive [activator, full curve, poor fit]
14 | Cc1ccc(N2C(=O)N(CC(=O)Nc3cc(F)ccc3C)C(=O)C2C)cc1 (stereo unspecified) | inactive: -2.63% | –
15 | CCc1ccc(NC(=O)C2C3/C=C\CCCCC32)cc1 (stereo unspecified) | – | inconclusive [activator, partial curve, poor fit]
16 | CCOC(=O)C=Nc1c(N)n(C)c(=O)n(C)c1=O | inactive: -8.72% | –
17 | Cc1ccsc1/C=N/NC(=O)c1sccc1C | – | inconclusive [activator, partial curve, poor fit]
18 | COc1ccc2oc(C(=O)Nc3ccc(C)cn3)c(C)c2c1 | – | inconclusive [activator, partial curve, poor fit]
19 | COc1ccc(Nc2nc(N)nc(SCc3nnc(C)s3)n2)cc1 | – | inconclusive [activator, partial curve, poor fit]
20 | CCOC(=O)c1ccc(NC(=S)NN2CCOCC2)cc1 | – | inconclusive [activator, partial curve, poor fit]
21 | Cc1nn(C)cc1/C=N\NC(=O)c1ccc2c(c1)c(C)c(C)n2Cc1ccccc1 | inactive: 1.01% | –
22 | Oc1cccc(/C=N/Nc2cccc3cccnc23)c1 | – | inconclusive [activator, full curve, poor fit]
23 | Cc1ccc2cc(NC(=O)c3ccccc3C)ccc2n1 | – | inconclusive [activator, partial curve, poor fit]
24 | CCc1ccc(-c2nn(-c3ccccc3)cc2C2SCC(=O)N2Cc2ccco2)cc1 (stereo unspecified) | inactive: 0.95% | –

Row | Compound | activity change, positive = activation | Potency
25 | Cc1ccc(NC(=O)CNC(=O)c2ccc(Br)o2)nc1 | inactive: 5.71% | –
26 | O=C(c1cc(Cl)ccc1OCc1ccccc1)N1CCOCC1 | – | inconclusive [activator, partial curve, poor fit]
27 | COc1ccc(/C=N/N2CCOCC2)cc1O | inactive: 27.8% | –
28 | COc1ccc(NC(=O)COC(=O)c2c3c(nc4ccccc24)CCCC3)cc1Cl | inactive: 7.51% | –
29 | COc1ccc(COC(=O)c2n[nH]c3ccccc23)cc1F | – | inconclusive [activator, partial curve, poor fit]
30 | O=C(CSc1cnc2ccccc2n1)c1ccc(F)cc1 | – | inconclusive [activator, full curve, poor fit]
31 | COc1ccc(C2CC(=O)N(C)c3ccccc3S2)cc1OC (stereo unspecified) | inactive: 5.38% | –
32 | COc1ccc(CCCC(=O)Nc2ccccc2F)cc1 | – | inconclusive [activator, partial curve, poor fit]
33 | O=C(NC(=O)c1ccccc1)C1=C(N2CCCC2)COC1=O | – | inconclusive [activator, full curve, poor fit]
34 | COC(=O)c1c(C)[nH]c(C(=O)CSc2ccc(Cl)cc2)c1C | – | inconclusive [activator, partial curve, poor fit]
35 | O=C1NN(c2ccc(F)cc2)C(=O)/C1=C\C=C\c1ccco1 | – | inconclusive [activator, single point]
36 | O=C(Nc1ccc2c(c1)CCCN2C(=O)c1cccs1)c1ccccc1 | – | inconclusive [activator, partial curve, poor fit]
37 | O=C(NNC(=S)Nc1ccc(OC(F)F)cc1)c1cc2c(s1)CCCC2 | – | inconclusive [activator, partial curve, poor fit]
38 | C/C(=C\C(=O)c1ccccc1)Nc1cccc(O)c1 | – | inconclusive [activator, partial curve, poor fit]
39 | Oc1ccc(Cl)cc1/C=N/c1nc2ccccc2[nH]1 | – | inconclusive [activator, single point]
40 | Cc1ccc(C2CC2C(=O)NNC(=S)Nc2ccc(Cl)cc2)cc1 (stereo unspecified) | inactive: 17.4% | –
41 | O=[N+]([O-])c1c(NCCCO)cc(SCc2ccco2)c2nonc12 | inactive: -13.2% | –
42 | COc1ccccc1N1CCN(C2CCCN(C(=O)C3=NN(C)C(=O)CC3)C2)CC1 (stereo unspecified) | – | inconclusive [activator, full curve, poor fit]
43 | O=C(NC(=S)N1CCCCC1CO)c1cccs1 (stereo unspecified) | – | inconclusive [activator, partial curve, poor fit]
44 | O=C1c2ccccc2C(=O)N1c1cccc(-c2csc(Nc3ccc4c(c3)OCO4)n2)c1 | – | inconclusive [activator, partial curve, poor fit]
45 | Cc1ccc(CNc2ccc(Cl)cc2[N+](=O)[O-])cc1 | – | inconclusive [activator, partial curve, poor fit]
46 | Cc1cccc(/C=N/n2c(-c3cc(-c4ccccc4)n[nH]3)n[nH]c2=S)c1 | inactive: 1.49% | –
47 | CCC(C)Sc1ccc(-c2nc3ccc(C)cn3c2NCc2ccccc2)cc1OC (stereo unspecified) | inactive: 16.2% | –
48 | OC(COCc1ccc(Cl)cc1)CN1CCN(CC(O)COCc2ccc(Cl)cc2)CC1 (stereo unspecified) | inactive: -5.47% | –

Row | Compound | activity change, positive = activation | Potency
49 | CCOc1ncccc1-c1nc(-c2cccs2)no1 | – | inconclusive [activator, partial curve, poor fit]
50 | COc1ccc(Nc2oc(-c3ccccc3Cl)nc2C#N)cc1 | – | inconclusive [activator, partial curve, poor fit]
51 | O=C(c1ccc(-c2nnc(-c3ccccc3)o2)cc1)N1CCCCCC1 | – | inconclusive [activator, partial curve, poor fit]
52 | C/C(=N\Nc1ncc(Cl)cc1Cl)c1ccc(S(=O)(=O)NCc2ccco2)cc1 | – | inconclusive [activator, partial curve, poor fit]
53 | COc1ccccc1OCC(=O)NNC(=O)c1cnccn1 | inactive: 7.73% | –
54 | COc1ccc(-c2c(C)nn(-c3ccccc3)c2N)cc1OC | inactive: 4.86% | –
55 | Fc1ccc2cnc(-c3ccccc3)cc2c1 | – | inconclusive [activator, partial curve, poor fit]
56 | O=C(Oc1ccc2c(c1)OCC2=O)c1ccc(Cl)cc1 | inactive: 1.85% | –
57 | CCOC(=O)CNC(=O)c1sc2ncnc(N3CCc4ccccc4C3)c2c1C | inactive: -4.63% | –
58 | CCCC(c1nnnn1CC1CCCO1)N1CCN(c2cc(Cl)ccc2C)CC1 (stereo unspecified) | inactive: -8.65% | –
59 | CC(C)C(=O)Nc1ccc(NC(=O)c2ccccc2Cl)nc1 | – | inconclusive [activator, partial curve, poor fit]
60 | C1=C(CCNc2ncnc3nc[nH]c23)CCCC1 | – | inconclusive [activator, full curve, poor fit]
61 | Clc1cccc(N/N=C(\Cc2nc3ccccc3[nH]2)c2ccccc2)c1 | – | inconclusive [activator, full curve, poor fit]
62 | CCN(CC)S(=O)(=O)c1ccc(C)c(C(=O)Oc2cccc(-c3cnc4ccccc4n3)c2)c1 | – | inconclusive [activator, full curve, poor fit]
63 | COCCSc1nnc(-c2cnccn2)o1 | inactive: 12.2% | –
64 | O=c1c2ccccc2nc(N/N=C/c2ccc(O)cc2)n1O | – | inconclusive [activator, single point]
65 | Cn1c(SCC(=O)c2ccccc2)nnc1-c1cccnc1 | – | inconclusive [activator, single point]
66 | CS(=O)(=O)Nc1ccc(C2=NN(S(C)(=O)=O)C(c3ccc4nccnc4c3)C2)cc1 (stereo unspecified) | inactive: 8.48% | –
67 | Cc1ccc(NC(=O)c2ccc(=O)[nH]n2)cc1C | inactive: 9.72% | –
68 | Cc1ccc(NC(=O)c2oc3ccccc3c2NC(=O)c2ccc3c(c2)OCO3)cc1 | inactive: 11.2% | –
69 | CCOc1cc(NC(=O)C2CC2)c(OCC)cc1NC(=O)c1cccnc1 | inactive: -0.278% | –
70 | CC(C)C(=O)Nc1ccc(C(=O)c2ccccc2)cc1 | inactive: 19.9% | –
71 | Cc1ccc(NC(=S)NNC(=O)c2nn(C)c(C)c2Cl)cc1 | – | inconclusive [activator, partial curve, poor fit]
